The other results are listed elsewhere or left out.
Key:
Experiment in all cases: glycan array binding signal (z-score within array); higher = stronger binding
Conditions in all cases: glycan notation: IUPAC condensed, linker removed
[1] = molecular target: Gal(b1-4)GlcNAc(b1-3)Gal(b1-4)GlcNAc(b1-3)[Gal(b1-4)GlcNAc(b1-3)Gal(b1-4)GlcNAc(b1-6)]GalNAc
How it was run: (§1)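 The binding signal is a Z-score computed within each array. Data were drawn from 3228 arrays in the Consortium for Functional Glycomics database, restricted to those with a known protein sequence. Scores were averaged over arrays of the same protein sequence at different concentrations or buffers, and over linkers, and negative values can be taken as non-binding.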

[2] = molecular target: Gal(b1-4)GlcNAc(b1-3)Gal(b1-4)GlcNAc(b1-6)[Gal(b1-3)]GalNAc
How it was run: as §1

[3] = molecular target: Gal(b1-4)GlcNAc(b1-3)Gal(b1-4)[Fuc(a1-3)]GlcNAc(b1-3)Gal(b1-4)[Fuc(a1-3)]GlcNAc
How it was run: as §1

[4] = molecular target: Gal(b1-4)GlcNAc(b1-3)GalNAc
How it was run: as §1

[5] = molecular target: Gal(b1-4)GlcNAc(b1-3)[Fuc(a1-3)GlcNAc(b1-6)]Gal(b1-4)Glc
How it was run: as §1

[6] = molecular target: Gal(b1-4)GlcNAc(b1-3)[Gal(b1-4)GlcNAc(b1-6)]Gal(b1-4)GlcNAc
How it was run: as §1

[7] = molecular target: Gal(b1-4)GlcNAc(b1-3)[GlcNAc(b1-6)]Gal(b1-4)GlcNAc
How it was run: as §1

[8] = molecular target: Gal(b1-4)GlcNAc(b1-6)Gal(b1-4)GlcNAc
How it was run: as §1

[9] = molecular target: Gal(b1-4)GlcNAc(b1-6)GalNAc
How it was run: as §1

[10] = molecular target: Gal(b1-4)GlcNAc(b1-6)[Gal(b1-3)]GalNAc
How it was run: as §1

[11] = molecular target: Gal(b1-4)GlcNAc(b1-6)[Gal(b1-4)GlcNAc(b1-3)]GalNAc
How it was run: as §1

[12] = molecular target: Gal(b1-4)GlcNAc6P
How it was run: as §1

[13] = molecular target: Gal(b1-6)Gal
How it was run: as §1

[14] = molecular target: Gal3S(b1-3)GalNAc
How it was run: as §1

[15] = molecular target: Gal3S(b1-3)GlcNAc
How it was run: as §1

[16] = molecular target: Gal3S(b1-3)[Fuc(a1-4)]GlcNAc
How it was run: as §1

[17] = molecular target: Gal3S(b1-4)Glc
How it was run: as §1

[18] = molecular target: Gal3S(b1-4)Glc6S
How it was run: as §1

[19] = molecular target: Gal3S(b1-4)GlcNAc
How it was run: as §1

[20] = molecular target: Gal3S(b1-4)[Fuc(a1-3)]Glc6S
How it was run: as §1

[21] = molecular target: Gal3S(b1-4)[Fuc(a1-3)]GlcNAc
How it was run: as §1

[22] = molecular target: Gal3S(b1-4)[Fuc(a1-3)]GlcNAc6S
How it was run: as §1

[23] = molecular target: Gal3S4S(b1-4)GlcNAc
How it was run: as §1

[24] = molecular target: Gal3S6S(b1-4)GlcNAc
How it was run: as §1

[25] = molecular target: Gal3S6S(b1-4)GlcNAc6S
How it was run: as §1

[26] = molecular target: Gal4S(b1-4)GlcNAc
How it was run: as §1

[27] = molecular target: Gal4S6S(b1-4)GlcNAc
How it was run: as §1

[28] = molecular target: Gal6P(b1-4)GlcNAc
How it was run: as §1

[29] = molecular target: Gal6S(b1-3)GlcNAc
How it was run: as §1

[30] = molecular target: Gal6S(b1-3)GlcNAc6S
How it was run: as §1

[31] = molecular target: Gal6S(b1-4)Glc
How it was run: as §1

[32] = molecular target: Gal6S(b1-4)Glc6S
How it was run: as §1

[33] = molecular target: Gal6S(b1-4)GlcNAc
How it was run: as §1

[34] = molecular target: Gal6S(b1-4)GlcNAc6S
How it was run: as §1

[35] = molecular target: GalNAc(a1-3)Gal
How it was run: as §1

[36] = molecular target: GalNAc(a1-3)GalNAc
How it was run: as §1

[37] = molecular target: GalNAc(a1-3)GalNAc(b1-3)Gal(a1-4)Gal(b1-4)Glc
How it was run: as §1

[38] = molecular target: GalNAc(a1-3)GalNAc(b1-3)Gal(a1-4)Gal(b1-4)GlcNAc
How it was run: as §1

[39] = molecular target: GalNAc(b1-3)Gal
How it was run: as §1

[40] = molecular target: GalNAc(b1-3)Gal(a1-4)Gal(b1-4)GlcNAc
How it was run: as §1

[41] = molecular target: GalNAc(b1-3)Gal(a1-4)Gal(b1-4)GlcNAc(b1-3)Gal(b1-4)Glc
How it was run: as §1

[42] = molecular target: GalNAc(b1-3)Gal(a1-6)Gal(b1-4)Glc
How it was run: as §1

[43] = molecular target: GalNAc(b1-3)GalNAc
How it was run: as §1

[44] = molecular target: GalNAc(b1-3)GlcNAc
How it was run: as §1

[45] = molecular target: GalNAc(b1-4)Gal(b1-4)Glc
How it was run: as §1

[46] = molecular target: GalNAc(b1-4)GlcNAc
How it was run: as §1

[47] = molecular target: GalNAc(b1-4)GlcNAc(b1-2)Man
How it was run: as §1

[48] = molecular target: GalNAc(b1-4)GlcNAc(b1-2)Man(a1-3)[GalNAc(b1-4)GlcNAc(b1-2)Man(a1-6)]Man(b1-4)GlcNAc(b1-4)GlcNAc
How it was run: as §1

[49] = molecular target: GalNAc(b1-4)GlcNAc(b1-3)GalNAc(b1-4)GlcNAc
How it was run: as §1

[50] = molecular target: GalNAc(b1-4)GlcNAc6S
How it was run: as §1

[51] = molecular target: GalNAc(b1-6)GalNAc
How it was run: as §1

[52] = molecular target: GalNAc3S(b1-4)GlcNAc
How it was run: as §1

[53] = molecular target: GalNAc3S(b1-4)GlcNAc3S
How it was run: as §1

[54] = molecular target: GalNAc3S(b1-4)[Fuc(a1-3)]GlcNAc
How it was run: as §1

[55] = molecular target: GalNAc4S6S(b1-4)GlcNAc
How it was run: as §1

[56] = molecular target: GalNAc6S(b1-4)GlcNAc
How it was run: as §1

[57] = molecular target: Glc(a1-4)Glc
How it was run: as §1

[58] = molecular target: Glc(a1-4)Glc(a1-4)Glc(a1-4)Glc
How it was run: as §1

[59] = molecular target: Glc(a1-6)Glc(a1-6)Glc
How it was run: as §1

[60] = molecular target: Glc(a1-6)Glc(a1-6)Glc(a1-6)Glc
How it was run: as §1

[61] = molecular target: Glc(b1-4)Glc
How it was run: as §1

[62] = molecular target: Glc(b1-6)Glc
How it was run: as §1

[63] = molecular target: GlcA(b1-3)Gal
How it was run: as §1

[64] = molecular target: GlcA(b1-3)GlcNAc
How it was run: as §1

[65] = molecular target: GlcA(b1-6)Gal
How it was run: as §1

[66] = molecular target: GlcA3S(b1-3)Gal(b1-4)GlcNAc(b1-2)Man
How it was run: as §1

[67] = molecular target: GlcA3S(b1-3)Gal(b1-4)GlcNAc(b1-3)Gal(b1-4)Glc
How it was run: as §1

[68] = molecular target: GlcNAc(a1-3)Gal(b1-4)GlcNAc
How it was run: as §1

[69] = molecular target: GlcNAc(a1-4)Gal(b1-3)GlcNAc
How it was run: as §1

[70] = molecular target: GlcNAc(a1-4)Gal(b1-4)GalNAc
How it was run: as §1

[71] = molecular target: GlcNAc(a1-4)Gal(b1-4)GlcNAc
How it was run: as §1

[72] = molecular target: GlcNAc(a1-4)Gal(b1-4)GlcNAc(b1-3)Gal(b1-4)Glc
How it was run: as §1

[73] = molecular target: GlcNAc(a1-4)Gal(b1-4)GlcNAc(b1-3)Gal(b1-4)GlcNAc
How it was run: as §1

[74] = molecular target: GlcNAc(a1-4)Gal(b1-4)GlcNAc(b1-3)Gal(b1-4)GlcNAc(b1-3)Gal(b1-4)GlcNAc
How it was run: as §1

[75] = molecular target: GlcNAc(a1-4)Gal(b1-4)GlcNAc(b1-3)Gal(b1-4)[Fuc(a1-3)]GlcNAc(b1-3)Gal(b1-4)[Fuc(a1-3)]GlcNAc
How it was run: as §1

B1: DC-ASGPR Long (Homo sapiens) (protein)
chain: MTRTYENFQYLENKVKVQGFKNGPLPLQSLLQRLRSGPCHLLLSLGLGLLLLVIICVVGFQNSKFQRDLVTLRTDFSNFTSNTVAEIQALTSQGSSLEETIASLKAEVEGFKQERQAGVSELQEHTTQKAHLGHCPHCPSVCVPVHSEMLLRVQQLVQDLKKLTCQVATLNNNASTEGTCCPVNWVEHQDSCYWFSHSGMSWAEAEKYCQLKNAHLVVINSREEQNFVQKYLGSAYTWMGLSDPEGAWKWVDGTDYATGFQNWKPGQPDDWQGHGLGGGEDCAHFHPDGGWNDDVCQRPYHWVCEAGLGQTSQESH
glycan array binding signal (z-score) [1]: -0.014 | glycan array binding signal (z-score) [2]: -0.334 | glycan array binding signal (z-score) [3]: -0.154 | glycan array binding signal (z-score) [4]: -0.428 | glycan array binding signal (z-score) [5]: -0.207 | glycan array binding signal (z-score) [6]: -0.435 | glycan array binding signal (z-score) [7]: -0.167 | glycan array binding signal (z-score) [8]: -0.534 | glycan array binding signal (z-score) [9]: 2.73 | glycan array binding signal (z-score) [10]: -0.345 | glycan array binding signal (z-score) [11]: -0.447 | glycan array binding signal (z-score) [12]: -0.388 | glycan array binding signal (z-score) [13]: -0.624 | glycan array binding signal (z-score) [14]: 0.08 | glycan array binding signal (z-score) [15]: -0.305 | glycan array binding signal (z-score) [16]: 0.258 | glycan array binding signal (z-score) [17]: -0.075 | glycan array binding signal (z-score) [18]: 0.284 | glycan array binding signal (z-score) [19]: -0.532 | glycan array binding signal (z-score) [20]: -0.501 | glycan array binding signal (z-score) [21]: -0.243 | glycan array binding signal (z-score) [22]: -0.173 | glycan array binding signal (z-score) [23]: -0.707 | glycan array binding signal (z-score) [24]: -0.427 | glycan array binding signal (z-score) [25]: -0.326 | glycan array binding signal (z-score) [26]: -0.608 | glycan array binding signal (z-score) [27]: -0.103 | glycan array binding signal (z-score) [28]: 0.095 | glycan array binding signal (z-score) [29]: -0.375 | glycan array binding signal (z-score) [30]: -0.016 | glycan array binding signal (z-score) [31]: -0.219 | glycan array binding signal (z-score) [32]: -0.262 | glycan array binding signal (z-score) [33]: -0.197 | glycan array binding signal (z-score) [34]: -0.022 | glycan array binding signal (z-score) [35]: 0.841 | glycan array binding signal (z-score) [36]: 0.678 | glycan array binding signal (z-score) [37]: -0.587 | glycan array binding signal (z-score) [38]: 0.521 | glycan array binding signal (z-score) [39]: 1.95 | glycan array binding signal (z-score) [40]: 3.37 | glycan array binding signal (z-score) [41]: 2.3 | glycan array binding signal (z-score) [42]: 3.13 | glycan array binding signal (z-score) [43]: 0.748 | glycan array binding signal (z-score) [44]: 1.54 | glycan array binding signal (z-score) [45]: 0.003 | glycan array binding signal (z-score) [46]: 2.19 | glycan array binding signal (z-score) [47]: 1.24 | glycan array binding signal (z-score) [48]: 0.951 | glycan array binding signal (z-score) [49]: 2.15 | glycan array binding signal (z-score) [50]: 1.86 | glycan array binding signal (z-score) [51]: -0.651 | glycan array binding signal (z-score) [52]: -0.356 | glycan array binding signal (z-score) [53]: 0.117 | glycan array binding signal (z-score) [54]: -0.402 | glycan array binding signal (z-score) [55]: 0.29 | glycan array binding signal (z-score) [56]: 1.58 | glycan array binding signal (z-score) [57]: -0.292 | glycan array binding signal (z-score) [58]: -0.489 | glycan array binding signal (z-score) [59]: 0.583 | glycan array binding signal (z-score) [60]: 0.178 | glycan array binding signal (z-score) [61]: -0.421 | glycan array binding signal (z-score) [62]: 0.425 | glycan array binding signal (z-score) [63]: -0.156 | glycan array binding signal (z-score) [64]: -0.594 | glycan array binding signal (z-score) [65]: -0.381 | glycan array binding signal (z-score) [66]: -0.33 | glycan array binding signal (z-score) [67]: -0.375 | glycan array binding signal (z-score) [68]: 0.005 | glycan array binding signal (z-score) [69]: -0.558 | glycan array binding signal (z-score) [70]: -0.054 | glycan array binding signal (z-score) [71]: -0.082 | glycan array binding signal (z-score) [72]: -0.062 | glycan array binding signal (z-score) [73]: -0.219 | glycan array binding signal (z-score) [74]: -0.481 | glycan array binding signal (z-score) [75]: -0.407

— the supplement of paper PMC8728848
